Results reported in paper PMC6919601, “Identification of Plasmodium dipeptidyl aminopeptidase allosteric inhibitors by high throughput screening” (PLoS ONE, 2019).
Hit rate of the full screen: of about 110,000 compounds, about 230 (0.21%) showed an effect of 50% or more. The list shows a part of the results.

molecular target: DPAP1 (Plasmodium falciparum, UniProt Q8IIJ9); test: primary screen, percent inhibition; read by cleavage of a fluorogenic dipeptide substrate; higher = more effect of the substance; parameters: species or system P. falciparum D10 trophozoite lysates; single well
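Also: 30 min substrate incubation versus DMSO and 10 µM JCP410 controls.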

Sequence of DPAP1 (Q8IIJ9 whole entry, looked up): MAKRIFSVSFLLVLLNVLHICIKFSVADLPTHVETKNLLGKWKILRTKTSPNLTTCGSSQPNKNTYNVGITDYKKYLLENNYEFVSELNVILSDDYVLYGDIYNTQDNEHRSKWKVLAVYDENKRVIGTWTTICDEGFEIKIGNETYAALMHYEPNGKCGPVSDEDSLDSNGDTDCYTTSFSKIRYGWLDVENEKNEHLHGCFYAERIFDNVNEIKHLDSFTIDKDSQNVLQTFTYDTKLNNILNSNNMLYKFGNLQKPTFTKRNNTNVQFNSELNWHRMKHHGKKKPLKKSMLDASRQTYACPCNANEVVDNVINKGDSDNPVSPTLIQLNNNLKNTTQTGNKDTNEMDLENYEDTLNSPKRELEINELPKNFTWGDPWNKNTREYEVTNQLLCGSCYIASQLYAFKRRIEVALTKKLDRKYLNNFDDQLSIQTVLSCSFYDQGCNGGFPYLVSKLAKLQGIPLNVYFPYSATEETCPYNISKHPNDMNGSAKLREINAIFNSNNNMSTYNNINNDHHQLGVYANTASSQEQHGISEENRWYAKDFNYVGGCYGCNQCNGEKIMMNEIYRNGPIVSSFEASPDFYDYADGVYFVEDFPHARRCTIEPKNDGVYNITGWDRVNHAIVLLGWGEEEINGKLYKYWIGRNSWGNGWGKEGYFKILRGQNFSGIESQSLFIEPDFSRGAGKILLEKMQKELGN

| Structure (SMILES) | % Inhibition @ 10 uM [%] |
| --- | --- |
| CC(C)CC(C(=O)O)N1C(=O)c2c(Cl)c(Cl)c(Cl)c(Cl)c2C1=O (stereo not drawn) | -3.63 |
| Cc1ccccc1NCc1[nH]cnc1C | -2.02 |
| S=c1cc(Sc2cc(=S)oc3ccccc23)c2ccccc2o1 | 8.23 |
| O=C(O)c1[nH]c2ccccc2c1CC(=O)N1CCN(Cc2ccc3c(c2)OCO3)CC1 | 4.14 |
| CC(C)OCCCNC(=O)C1CCCN(C(=O)c2cnn(-c3ccc(F)cc3)c2-n2cccc2)C1 (stereo not drawn) | -3.01 |
| Cc1ccc(S(=O)(=O)c2cc3c(=O)n4cccc(C)c4nc3n(Cc3ccccc3)c2=N)cc1 | -1.52 |
| OCC1CCCCN1Cc1ccccc1F (stereo not drawn) | 1.9 |
| OCC(O)Cn1c2ccccc2c2ccccc21 (stereo not drawn) | 1.44 |
| COCc1cc(C)nc2sc3c(c12)NC(C)N(Cc1ccco1)C3=O (stereo not drawn) | 7.17 |
| CCN(C(=O)CN1CCOCC1)C1(C)C(=O)c2ccccc2C1=O | 4.64 |
| COc1ccc2c(CNCc3cccnc3)c(C(=O)O)n(Cc3ccc(F)cc3Cl)c2c1 | 9.37 |
| COc1ccccc1/C=C1\SC(c2ccccc2)=NC1=O | 15.7 |
| CC(C)N(Cc1c(O)ccc2c(=O)c(-c3ccccc3)coc12)C(C)C | 17.4 |
| CC(=O)N1CN(C2CCCCC2)Cc2c1sc1c2CCCC1 | -0.123 |
| COc1ccc(Br)cc1CN1CC2(C)CC1CC(C)(C)C2 (stereo not drawn) | -1.5 |
| NC(=O)C1CCN(C(=O)/C(=C/c2ccccc2)NC(=O)c2ccccc2)CC1 | 2.46 |
| CCCOc1ccc(C2C3=C(O)CC(C)(C)CC3=Nc3ccccc3N2C(C)=O)cc1OC (stereo not drawn) | -6.62 |
| CCOc1ccc(NC(=O)c2cc(OC)cc(OC)c2)cc1 | 2.82 |
| CCc1nn2c(=O)cc(CSc3nnc(N)s3)nc2s1 | 1.15 |
| COCCCNC(=O)CCN1C(=O)c2ccccc2C1=O | -7.36 |
| Nc1nnc(SCC(=O)Nc2nc(-c3ccccc3)cs2)s1 | 2.03 |
| Cc1cccc(CN2CCN(Cc3ccccc3F)CC2)c1 | -2.87 |
| Cc1ccc(OCCn2cc(C(=O)O)c3ccccc32)cc1C | -1.33 |
| O=C(NCCN1CCCC1)c1ccc(Cl)cc1Cl | -0.992 |
| COc1cc2c(cc1OC)C(C(=O)NCCC1=CCCCC1)C(c1cccnc1)N(C)C2=O (stereo not drawn) | -1.41 |

| Structure (SMILES) | % Inhibition @ 10 uM [%] |
| --- | --- |
| N#Cc1ccc(NC(=O)CCc2ccccc2)cc1 | 3.29 |
| Cc1ccc(Cl)cc1N(CC(=O)NC(C)C)S(C)(=O)=O | -3.78 |
| Cc1ccc(OCC(=O)NC2C3CC4CC(C3)CC2C4)c(-n2nc3ccccc3n2)c1 (stereo not drawn) | -2.28 |
| CCOC(=O)/C(C#N)=C/c1ccc(N(C)C)c(Br)c1 | 2.76 |
| COc1ccccc1C(=O)N1CCN(C(c2ccccc2)c2ccccc2)CC1 | -0.512 |
| CCOc1cc(C=C2C(=O)N(C)C(=O)N(C)C2=O)ccc1OCCSc1cccc2ccccc12 | 2.94 |
| Cc1oc(-c2ccc(Cl)cc2)nc1CSCC(=O)NCc1ccc(Cl)cc1 | -4.71 |
| O=C1C(/C=N/c2cccc(C(F)(F)F)c2)=C(O)c2ccccc21 | 0.76 |
| O=C(/C=C/c1cccc([N+](=O)[O-])c1)Nc1ccc(Cl)c(Cl)c1 | -0.828 |
| O=C(O)CCN1C2=C(C(=O)CCC2)C(c2ccccc2OCc2ccccc2)C2=C1CCCC2=O | -1.5 |
| CCN1CCCC1CNC(=O)c1cn(C2CCCC2)c(=O)c2c1c1ccccc1n2C (stereo not drawn) | -5.27 |
| COc1cc(C2C3=C(CCCC3=O)OC3=C2C(=O)CCC3)ccc1OCC(=O)Nc1ccccc1 | -0.854 |
| O=C(CCn1c(SCc2cccnc2)nc2c(sc3ccccc32)c1=O)NCC1CCCO1 (stereo not drawn) | 9.51 |
| COc1ccc(NS(=O)(=O)c2ccc(F)cc2)cc1 | -3.94 |
| OCCN1CCN(Cc2cccc(Br)c2)CC1 | -1.48 |
| COCCNC(=O)c1ccc(-n2c(-c3ccccc3)cc3c2CCCC3)cc1 | -5.69 |
| O=C(c1ccc(CNc2c(N3CCCC3)c(=O)c2=O)cc1)N1CCN(C2CCCCC2)CC1 | 2.84 |
| O=C(Nc1ccc2c(c1)OCO2)NC1CCCCC1 | 2.01 |
| O=C1c2ccccc2C(=O)c2c1cccc2S(=O)(=O)NCc1ccccc1 | 2.24 |
| O=C(C1CCN(c2nnc(-n3cccc3)s2)CC1)N1CCN(Cc2ccccc2)CC1 | -2.25 |
| O=C(O)CCNC(=O)OCC1c2ccccc2-c2ccccc21 | 19 |
| Cc1ccc(S(=O)(=O)NC(C)C(=O)NC2CC2)cc1 (stereo not drawn) | 5.51 |
| Cc1ccc(/C=C2/NC(=O)N(Cc3ccccc3)C2=O)s1 | 3.72 |
| Cc1ccccc1N/C=C1/C(=O)NC(=O)N(c2cccc(Cl)c2)C1=O | 2.69 |
| COC(=O)C1CCCN1CP(=O)(O)CN1CCCC1C(=O)OC (stereo not drawn) | -2.77 |

| Structure (SMILES) | % Inhibition @ 10 uM [%] |
| --- | --- |
| Cc1ccccc1NC(=O)c1cc(F)c(Cl)nc1Cl | -5.23 |
| CC(=O)c1nn(-c2ccc(OC(F)(F)F)cc2)nc1Nc1nncs1 | -4.91 |
| CCOc1ccc2c(c1)C(C)=CC(C)(C)N2Cc1ccc(CN2c3ccc(OCC)cc3C(C)=CC2(C)C)cc1 | -0.771 |
| CCOc1ccccc1C1C2=C(CC(C)(C)CC2=O)N(CC)C2=C1C(=O)CC(C)(C)C2 | 0.147 |
| CCN1CCN(C2C3CC4CC(C3)CC2C4)CC1 (stereo not drawn) | -10.6 |
| CCOc1ccc(OCC)c(S(=O)(=O)NC(C)c2ccc(-n3ccnc3)cc2)c1 (stereo not drawn) | -5.72 |
| Cc1ccc(S(=O)(=O)N2Cc3ccccc3C(C)CC23CCCCC3)cc1 (stereo not drawn) | 2.78 |
| CCOc1cccc2c1Oc1nc(-c3ccccc3)nc(SCC(=O)O)c1C2 | 6.55 |
| CCc1ccc(NC(=O)C2CCN(S(=O)(=O)c3cc(Cl)ccc3Cl)CC2)cc1 | -4.06 |
| CCOc1cc2c(cc1OCC)C(C1CCCCC1)NCC2 (stereo not drawn) | -1.61 |
| CCOC(=O)c1cnc2ccc([N+](=O)[O-])cc2c1O | -4.35 |
| O=C(O)C1CC=CCC1C(=O)Nc1cccc(O)c1 (stereo not drawn) | -5.4 |
| O=C1N/C(=C/c2ccco2)C(=O)N1c1cccc(Cl)c1 | -2.67 |
| Cc1ccc(CNCc2ccc(C(=O)O)s2)cc1 | 1.03 |
| Cc1ccc(-n2nc3c(c2NC(=O)c2ccccc2C)CS(=O)(=O)C3)cc1 | 3.94 |
| CCCCNC(=O)c1cc(-c2ccco2)on1 | -5.77 |
| Cc1cc2nc(-c3cccs3)cc(C(F)(F)F)n2n1 | -3.97 |
| Cc1nn(CC(=O)NC(C)C23CC4CC(CC(C4)C2)C3)c(=O)c2cc3sccc3n12 (stereo not drawn) | -1.58 |
| CCOC(=O)N1CCN(C(=O)c2cn(C3CCCCC3)c(=O)c3c2c2ccccc2n3C)CC1 | -3.39 |
| Cc1ccc(C(C)C)c(OCC(=O)Nc2ccc(S(=O)(=O)Nc3cc(C)nc(C)n3)cc2)c1 | 0.528 |
| CC1=CC=CN2C1=NC(C(F)(F)F)(C(F)(F)F)N=C2c1ccccc1 | -5.4 |
| Cc1ccc(C2C(C#N)=C(N)Oc3[nH]nc(C(F)(F)F)c32)cc1 (stereo not drawn) | 4.7 |
| O=C(CN(Cc1ccccc1)S(=O)(=O)c1ccc(Cl)cc1)Nc1cccc(F)c1 | -11 |
| CCOc1cccc(C(=O)Nc2ccc(N3CCN(C(=O)C(C)C)CC3)c(Cl)c2)c1 | -5.32 |
| O=C(CSCc1cnn(-c2ccccc2)c1-n1cccc1)N1CCOCC1 | 2.07 |

| Structure (SMILES) | % Inhibition @ 10 uM [%] |
| --- | --- |
| O=C(Nc1ccc2ncccc2c1)c1cccc2ccccc12 | 2.7 |
| CC(C)(C)c1cc(Br)cc(C2N(c3ccccc3)CCN2c2ccccc2)c1O | 4.89 |
| COc1ccc(-c2nc(N3CCN(Cc4ccc(Cl)cc4)CC3)nc(O)c2C#N)cc1 | 0.8 |
| Nc1ccc(C(=O)c2ccc(C(=O)O)c(C(=O)O)c2)cc1 | 6.03 |
| COc1cccc([C@H]2NCC[C@@]3(O)CCCC[C@H]23)c1 | -0.0372 |
| CCC(C)n1ncn(-c2ccc(N3CCN(c4ccc(O)cc4)CC3)cc2)c1=O (stereo not drawn) | -4.5 |
| COc1ccc(-n2c(C)nc3c(sc4nc5ccccc5cc43)c2=O)cc1 | 0.658 |
| CCOc1ccccc1/C=c1\sc2nnc(-c3cc(OC)c(OC)c(OC)c3)n2c1=O | -0.0735 |
| CCN(CC)CCNC(=O)/C(=C/c1cn(CC)c2ccccc12)NC(=O)c1ccccc1F | -3.52 |
| CC(=O)C1=C(C)OC(N)=C(C#N)C12C(=O)Nc1ccccc12 (stereo not drawn) | -1.98 |
| O=C(c1cnccn1)N1CCN(c2ccccc2)CC1 | 1.43 |
| CC(C(=O)N1CCN(Cc2ccc(Cl)cc2)CC1)N1C(=O)c2ccccc2C1=O (stereo not drawn) | -0.053 |
| Cc1ccc(C2SCC(=O)N2c2cccc(Cl)c2)cc1 (stereo not drawn) | -2.29 |
| O=C1S/C(=C\c2ccco2)C(=O)N1Cc1ccccc1 | -2.6 |
| CCOC(=O)C1=C(N)Oc2[nH]nc(C)c2C1c1ccc(Cl)cc1Cl (stereo not drawn) | 6.4 |
| NC(=S)N/N=C/c1c[nH]c2ccccc12 | 5.98 |
| Nc1nonc1-n1nnc(C(=O)N2CCCCC2)c1-c1ccccc1 | 5.98 |
| CS(=O)(=O)c1ccc2nc(NC(=O)C3CCCO3)sc2c1 (stereo not drawn) | -4.75 |
| Cc1[nH]nc2c1C1(CCN(C(=O)OC(C)(C)C)CC1)C(C#N)=C(N)O2 | 2.45 |
| N#Cc1cc(-c2ccccc2)c(Cc2ccccc2)nc1S | -3.16 |
| CN(C)c1ccnc2sc3c(SCc4ccc(Cl)cc4)ncnc3c12 | 2.6 |
| CCOc1ccc(C=C2C(=O)NC(=O)NC2=O)cc1OC | -0.615 |
| COc1cccc(OC)c1C(=O)Nc1ccccc1Cl | 0.361 |
| Cc1cnc(NC(=O)C23CC4CC(C2)CC(n2cnc(Br)n2)(C4)C3)s1 | -3.05 |
